Data reported in PubChem BioAssay AID463254 (National Center for Advancing Translational Sciences (NCATS), 2010).
About 40 (0.01%) of roughly 330,000 compounds were called active. This list was built around the results that the source calls inconclusive (neither active nor inactive); the mix of calls is not that of the screen. Calls come from the whole dose curve; as a rule, active = well fitted inhibition curve with a large enough effect; inconclusive = small, poorly fitted or top-dose-only effect, or effect the other way; inactive = flat fitted curve, though single readings scatter. A potency beside an inconclusive call is a rough fit, not a confirmed value.

Target: Ubiquitin carboxyl-terminal hydrolase 2 (Homo sapiens) (UniProt O75604)
Chain of UniProt O75604 (O75604 whole entry, looked up): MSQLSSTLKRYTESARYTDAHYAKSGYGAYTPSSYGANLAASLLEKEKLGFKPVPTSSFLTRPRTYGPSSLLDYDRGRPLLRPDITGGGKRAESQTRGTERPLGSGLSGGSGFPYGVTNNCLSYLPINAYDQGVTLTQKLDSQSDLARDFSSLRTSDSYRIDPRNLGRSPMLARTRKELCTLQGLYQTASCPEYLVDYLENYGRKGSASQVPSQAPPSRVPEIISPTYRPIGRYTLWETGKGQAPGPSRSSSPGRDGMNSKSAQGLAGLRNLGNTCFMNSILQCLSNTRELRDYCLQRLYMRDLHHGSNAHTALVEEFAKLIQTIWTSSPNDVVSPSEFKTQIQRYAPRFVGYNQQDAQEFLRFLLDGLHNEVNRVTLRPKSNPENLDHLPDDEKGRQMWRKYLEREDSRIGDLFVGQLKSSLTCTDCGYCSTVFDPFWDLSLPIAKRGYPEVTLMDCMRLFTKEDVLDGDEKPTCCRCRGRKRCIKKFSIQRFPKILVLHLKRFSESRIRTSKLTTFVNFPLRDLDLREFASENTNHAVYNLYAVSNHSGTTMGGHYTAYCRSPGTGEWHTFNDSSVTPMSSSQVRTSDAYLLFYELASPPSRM
Assay: qHTS Assay for Inhibitors of Ubiquitin-specific Protease USP2a Using CHOP2 as the Reporter;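 for activity change, negative = inhibition: plate controls were DMSO wells for no effect and full inhibition by NEM control for full effect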
Conditions: USP2 core, Ub-CHOP2 coupled fluorogenic reporter, 485/531; activity change, negative = inhibition: at 38.3 µM (top of the series)
In short: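 Cell-free coupled assay: 10nM USP2 core preincubated 30min RT with compound in Tris-HCl pH 8.0/CaCl2/CHAPS buffer, then 25nM Ub-CHOP2 and 25nM reporter substrate; fluorescence (Ex 485/Em 531) read after 60min RT, normalized to NEM inhibition, concentration-response curves fitted.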
Potency is the fitted concentration of half-maximal effect; tags give direction and shape of the fitted curve or compound fluorescence and quenching.

Structure (SMILES)	Potency	activity change, negative = inhibition
Cc1c2ccccc2nc2c(F)c(NCCO)c(F)c(F)c12	inconclusive: 10 µM [fluorescent, partial curve]	–
Cc1cc(C)c(C#N)c(SC2CCCCC2=O)n1 (stereo unspecified)	–	inactive: 2.93%
Oc1ccc(/C=N/NC(=S)N/N=C/c2ccc(O)cc2)cc1	inconclusive: 28.2 µM [falling, single point]	–
Cc1cc(=O)oc(C)c1C(=O)NCCc1ccccc1	inconclusive: 28.2 µM [falling, single point]	–
O=C1C=C(O)c2cccc(O)c2C1=O	inconclusive: 28.2 µM [falling, single point]	–
COc1ccc(CNC(=O)c2csc(Cc3ccc(Cl)cc3)n2)cc1	–	inactive: -1.62%
O=C1c2ccccc2C(=O)N1CCC1=CCCCC1	inconclusive: 22.4 µM [falling, single point]	–
COc1ccc(C2CC(=O)N3CN(c4ccccc4F)CSC3=C2C#N)cc1OC (stereo unspecified)	active: 4.47 µM	–
CCOC(=O)c1[nH]c2ccc(OC)cc2c1NC(=O)CN1CCSCC1	inconclusive: 5.01 µM [fluorescent, single point]	–
Cc1n[nH]c(C)c1S(=O)(=O)N1CCCC(C(=O)NC2CCCc3ccccc32)C1 (stereo unspecified)	inconclusive: 5.01 µM [falling, single point]	–
CCN(CC)S(=O)(=O)c1cccc(C(=O)NC(C(=O)Nc2nnc(C3CC3)s2)C(C)C)c1 (stereo unspecified)	–	inactive: -12.1%
C#CCOCCOCCOCCNc1nc(N2CCN(C(=O)CCCCCCCCCCNC(=O)Cn3cc(CCCCCN)nn3)CC2)nc(N2CCN(C(=O)CCCCCCCCCCNC(=O)[C@H]([C@@H](C)CC)n3cc(CCCCN=C(N)N)nn3)CC2)n1	inconclusive: 3.55 µM [falling, full curve]	–
O=C1C=C(NNC(=O)c2cccnc2)CC(c2ccco2)C1 (stereo unspecified)	inconclusive: 22.4 µM [fluorescent, single point]	–
O=C(C[n+]1ccc(C(=O)N/N=C/c2ccc(OCc3ccccc3)cc2)cc1)c1ccccc1	inconclusive: 28.2 µM [falling, single point]	–
COc1cccc(N2CCN(C(=O)CN(C)S(=O)(=O)c3ccc4c(c3)CCC(=O)N4)CC2)c1	inconclusive: 28.2 µM [falling, single point]	–
CCN(Cc1ccc2c(c1)OCO2)C(=O)/C=C/c1cccc(Br)c1	–	inactive: -0.272%
CNc1nc(OCCNC(=O)Nc2ccccc2)nc(N2CCOCC2)n1	inconclusive: 22.4 µM [falling, single point]	–
Cc1c(C(=O)Nc2ccc3c4c(cccc24)CC3)cccc1[N+](=O)[O-]	inconclusive: 4.47 µM [falling, single point]	–
CCOC(=O)/C(=C\C=C1/Sc2cc(OCC)c(OCC)cc2N1CC)C(C)=O	inconclusive: 10 µM [fluorescent, partial curve]	–
CC[n+]1ccc(/C=C/c2c[nH]c3ccccc23)cc1	inconclusive: 11.2 µM [fluorescent, partial curve]	–
Cc1ccc(S(=O)(=O)NCC(=O)N(CC(=O)NCc2ccco2)Cc2ccco2)cc1	–	inactive: 10.3%
O=C(Nc1nc2ccccc2[nH]1)c1ccc(Cl)c(S(=O)(=O)N2CCCC2)c1	–	inactive: -7.01%
COc1ccccc1N1C(=O)CC(N2CCc3ccccc32)C1=O (stereo unspecified)	inconclusive: 22.4 µM [falling, single point]	–
O=c1oc2c(CN3CCCCCC3)c(O)ccc2cc1-c1nc2ccccc2[nH]1	inconclusive: 12.6 µM [fluorescent, partial curve]	–

Structure (SMILES)	Potency	activity change, negative = inhibition
COc1cc(NC(=O)c2ccno2)cc(C(=O)Nc2cccc(C(F)(F)F)c2)c1	–	inactive: -18.1%
CN(c1ccccc1)S(=O)(=O)c1cccc(NC(=O)CSc2n[nH]c(N)n2)c1	–	inactive: 0.928%
COc1cc(/C=C/c2cc[n+](C)cc2)ccc1OCC(=O)Nc1ccc(Cl)c(Cl)c1	inconclusive: 22.4 µM [falling, single point]	–
CCOC(=O)/C(=C\C=C1/Sc2ccccc2N1CC)C(C)=O	inconclusive: 10 µM [fluorescent, partial curve]	–
COc1cccc(/C=N/n2c(SC)nnc2-c2ccccc2)c1O	inconclusive: 5.01 µM [falling, single point]	–
COc1cc(C(=O)OCC(=O)Nc2c(F)c(F)c(F)c(F)c2F)cc(OC)c1OC	inconclusive: 28.2 µM [falling, single point]	–
O=c1ccc2c(-c3ccccc3S(=O)(=O)O)c3ccc(O)c(O)c3oc-2c1O	inconclusive: 11.2 µM [falling, partial curve]	–
Cc1cc(NCCN(C)C)n2nc(-c3cccs3)cc2n1	–	inactive: 3%
CCN(CC)C(=O)c1ccc(/C=C/c2c[nH]c3ccccc23)[n+](C)c1	inconclusive: 11.2 µM [fluorescent, single point]	–
CCOC(=O)/C(=C/C=C1\Sc2cc(C)c(C)cc2N1CC)C(C)=O	inconclusive: 2.51 µM [fluorescent, full curve]	–
CC(=O)c1ccc(Nc2ncnc3c2oc2ccccc23)cc1	inconclusive: 5.01 µM [falling, single point]	–
Cc1cc2c(c(=O)n1CC1CCCO1)C(c1ccco1)C(C#N)=C(N)O2 (stereo unspecified)	inconclusive: 28.2 µM [falling, single point]	–
Fc1cnc(Cl)nc1NC1CCCCC1	–	inactive: -2.26%
Oc1ccc(CNc2cccc(F)c2F)c2cccnc12	–	inactive: 1.26%
O=C(CCC(=O)N1CCN(C2CCCC2)CC1)Nc1nnc(C(F)(F)F)s1	–	inactive: 1.05%
COc1ccccc1Oc1coc2c(CN3CCN(C)CC3)c(O)ccc2c1=O	–	inactive: -0.362%
CCN1/C(=C\C=C(C(C)=O)C(C)=O)Sc2ccccc21	inconclusive: 12.6 µM [fluorescent, single point]	–
S=c1[nH]nc(C2CCCCC2)n1/N=C/c1ccc(Cl)cc1	–	inactive: -8.33%
CCNC1=C(Cl)C(=O)c2ccccc2C1=O	inconclusive: 20 µM [falling, single point]	–
C/C(CCc1oc2c(Br)cc(Br)cc2c1-c1ccc(C)o1)=N\O	–	inactive: 2.58%
COc1cc(/C=N/N2CCN(c3ccccc3OC)CC2)ccc1OC(C)=O	–	inactive: -0.589%
Cn1cccc1/C=C1\CCC/C(=C\c2cccn2C)C1=O	inconclusive: 10 µM [fluorescent, partial curve]	–
Cc1ccc(C(=O)N(c2c(C)n(C)n(-c3ccccc3)c2=O)C(C)C)cc1	inconclusive: 5.01 µM [falling, single point]	–
c1cc(Nc2cccc3nccnc23)c2nccnc2c1	inconclusive: 28.2 µM [fluorescent, single point]	–

Structure (SMILES)	Potency	activity change, negative = inhibition
CCc1ccc(-c2cc(C)no2)cc1S(=O)(=O)NCCN1CCC(C)CC1	–	inactive: 1.19%
Nc1nonc1-c1nc2ccccc2n1CC(=O)N/N=C/c1ccc(-c2cccc(C(=O)O)c2)o1	–	inactive: -2.8%
O=C(O)c1ccccc1C1=Nc2ccc(O)cc2Oc2cc(O)ccc21	inconclusive: 12.6 µM [fluorescent, single point]	–
CN(C)c1ccc(C(CN)c2c[nH]c3ccccc23)cc1 (stereo unspecified)	inconclusive: 28.2 µM [falling, single point]	–
Cc1cccc(S(=O)(=O)C(C#N)c2nc3ccccc3nc2N2CCOCC2)c1 (stereo unspecified)	inconclusive: 28.2 µM [fluorescent, single point]	–
Cc1ccc(S(=O)(=O)N2[C@@H](c3ccc(Cl)cc3)C(C(=O)O)=CC[C@H]2c2ccc(C(C)C)cc2)cc1	inconclusive: 22.4 µM [falling, single point]	–
N#CCC(N)=C(C#N)C#N	–	inactive: 0.798%
CC(C)CCn1c(CN2CCN(C(=O)c3ccco3)CC2)nc2c1c(=O)n(C)c(=O)n2C	inconclusive: 28.2 µM [falling, single point]	–
COc1ccc(NC(=O)CSc2ncccc2C(=O)OC(C)C)cc1OC	inconclusive: 25.1 µM [falling, single point]	–
NC1=NC(=O)/C(=C/c2cccc(-c3ccc(S(N)(=O)=O)cc3)c2)S1	inconclusive: 28.2 µM [falling, single point]	–
Cn1c(=O)c(C(=O)Nc2ncccc2O)c(O)c2ccccc21	inconclusive: 20 µM [falling, single point]	–
Cc1c(C(=O)NCc2c(F)cc(F)cc2F)oc2ccc(S(=O)(=O)N3CCOCC3)cc12	inconclusive: 28.2 µM [falling, single point]	–
CC(=O)Nc1ccc(Nc2cc(C)nc3c(-c4ccc(Cl)cc4)cnn23)cc1	–	inactive: -0.975%
O=C(Nc1ccc(Br)cc1F)c1ccncc1	–	inactive: -1.82%
CCCCc1cc(=O)oc2cc(C)c(CN3CCCC3)c(O)c12	inconclusive: 28.2 µM [falling, single point]	–
CCC(C)C(NC(=O)c1ccccc1)C(=O)Nc1ccc(S(=O)(=O)Nc2cc(C)nc(C)n2)cc1 (stereo unspecified)	–	inactive: -0.161%
Cc1cc(/C=N/NC(N)=S)c(O)c(/C=N/NC(N)=S)c1	inconclusive: 11.2 µM [fluorescent, partial curve]	–
CCOC(=O)c1c(C)[nH]c(C(=O)COC(=O)CSC)c1C	inconclusive: 5.01 µM [falling, single point]	–
[O-][n+]1onc2c1CCc1c-2nn(-c2ccccc2Cl)[n+]1[O-]	–	inactive: 7.31%
CCCCCCCNC(=O)COc1ccc2c(c1)C(=O)CC(C)(C)O2	–	inactive: -10.4%
COC(=O)c1cc2c(C)c(C)c3ccccn3c-2c1C(=O)OC	inconclusive: 14.1 µM [fluorescent, single point]	–
Cc1ccc(C)n1Cc1ccc(C(=O)O)cc1	inconclusive: 20 µM [falling, single point]	–
Cc1c(Cl)cccc1NC(=O)CN1CCN(CCN=CC2=C(O)CC(c3ccccc3)CC2=O)CC1 (stereo unspecified)	inconclusive: 28.2 µM [fluorescent, single point]	–
